# Measured values: the supplement of paper PMC10037445
# In all, about 2,900 compounds were measured (“NF-kB SEAP reporter activity, fold change vs agonist alone”: median about 0.99, highest 2% from about 2.6 on). Some of the results follow.
# Assays:
# [1] = tested on: RAW-Dual; test: NF-kB SEAP reporter activity, fold change vs agonist alone; higher = enhanced NF-kB activity
# Procedure, shortened: (§1)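 Cytotoxic wells were those whose IncuCyte confluency was below 70% of agonist controls in both mask sets. The cells were RAW-Dual macrophages at 50,000 cells/well in DMEM on 384-well plates, dosed with 50 nL of library stock by pin tool, stimulated with a PRR agonist 1 h later, and kept at 37 °C, 5% CO2 for 20 hours. IRF and NF-κB reporter activity, as fold change over agonist-alone wells, came from supernatant read by QuantiLuc luminescence and QuantiBlue absorbance, respectively.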
# [2] = tested on: RAW-Dual; test: NF-kB SEAP reporter activity, fold change vs agonist alone; cytotoxicity flag (confluency mask): not cytotoxic; higher = enhanced NF-kB activity
# Procedure, shortened: as §1
# [3] = tested on: RAW-Dual; test: NF-kB SEAP reporter activity, fold change vs agonist alone; cytotoxicity flag (confluency mask): cytotoxic (confluency <70% of control); higher = enhanced NF-kB activity
# Procedure, shortened: as §1
# [4] = library stock concentration (final ~1000-fold dilution): 10 mM, cytotoxicity flag (confluency mask): not cytotoxic, agonist: Imiquimod (TLR7) […]
# [5] = library stock concentration (final ~1000-fold dilution): 10 mM, cytotoxicity flag (confluency mask): not cytotoxic, agonist: MPLA (TLR4) […]
# [6] = agonist: ODN 1826 (TLR9) 0.5 ug/mL
# [7] = agonist: Pam2CSK4 (TLR2/6) 0.1 ug/mL
# [8] = agonist: Pam3CSK4 (TLR2/1) 0.1 ug/mL
# [9] = library stock concentration (final ~1000-fold dilution): 10 mM, cytotoxicity flag (confluency mask): cytotoxic (confluency <70% of control), agonist: MPLA (TLR4) […]
# [10] = library stock concentration (final ~1000-fold dilution): 10 mM, cytotoxicity flag (confluency mask): cytotoxic (confluency <70% of control), agonist: Imiquimod (TLR7) […]
compound,measurement,setting,value
Cc1ccc(-c2nn(C(C)(C)C)c3ncnc(N)c23)cc1,NF-kB SEAP reporter activity,[1]; [4],1.09
same,NF-kB SEAP reporter activity,[1]; [5],1.15
Cc1ccc(-c2nn(C(C)(C)C)c3ncnc(N)c23)cc1 (library stock concentration (final ~1000-fold dilution): 10 mM),NF-kB SEAP reporter activity,[2]; agonist: LPS (TLR4) 0.1 ug/mL,1.17
same,NF-kB SEAP reporter activity,[2]; [6],1.21
same,NF-kB SEAP reporter activity,[2]; [7],0.503
same,NF-kB SEAP reporter activity,[2]; [8],0.351
NCCCC(=O)O (library stock concentration (final ~1000-fold dilution): 10 mM water),NF-kB SEAP reporter activity,[2]; agonist: LPS (TLR4) 0.1 ug/mL,1.03
same,NF-kB SEAP reporter activity,[2]; [6],1.1
same,NF-kB SEAP reporter activity,[2]; [7],1.08
same,NF-kB SEAP reporter activity,[2]; [8],1.15
NCCCC(=O)O,NF-kB SEAP reporter activity,"[1]; library stock concentration (final ~1000-fold dilution): 10 mM water, cytotoxicity flag (confluency mask): not cytotoxic, agonist: MPLA (TLR4) […]",1
CC(C)CC(NP(=O)(O)OC1OC(C)C(O)C(O)C1O)C(=O)NC(Cc1c[nH]c2ccccc12)C(=O)O (centres undefined),NF-kB SEAP reporter activity,[1]; [4],0.973
same,NF-kB SEAP reporter activity,[1]; [5],1.03
CC(C)CC(NP(=O)(O)OC1OC(C)C(O)C(O)C1O)C(=O)NC(Cc1c[nH]c2ccccc12)C(=O)O (centres undefined) (library stock concentration (final ~1000-fold dilution): 10 mM),NF-kB SEAP reporter activity,[2]; agonist: LPS (TLR4) 0.1 ug/mL,1.04
same,NF-kB SEAP reporter activity,[2]; [6],0.986
same,NF-kB SEAP reporter activity,[2]; [7],1.05
same,NF-kB SEAP reporter activity,[2]; [8],1.41
C=CC1CC1(NC(=O)C1CC(Oc2ncc(OC)c3ccc(Cl)cc23)CN1C(=O)C(NC(=O)OC(C)(C)C)C(C)(C)C)C(=O)NS(=O)(=O)C1CC1 (centres undefined) (library stock concentration (final ~1000-fold dilution): 10 mM),NF-kB SEAP reporter activity,[3]; agonist: LPS (TLR4) 0.1 ug/mL,1.1
same,NF-kB SEAP reporter activity,[3]; [6],0.915
same,NF-kB SEAP reporter activity,[3]; [7],0.518
same,NF-kB SEAP reporter activity,[3]; [8],0.508
C=CC1CC1(NC(=O)C1CC(Oc2ncc(OC)c3ccc(Cl)cc23)CN1C(=O)C(NC(=O)OC(C)(C)C)C(C)(C)C)C(=O)NS(=O)(=O)C1CC1 (centres undefined),NF-kB SEAP reporter activity,[1]; [9],1.06
CNC(=NC#N)NCCSCc1nc[nH]c1C (library stock concentration (final ~1000-fold dilution): 10 mM),NF-kB SEAP reporter activity,[2]; agonist: LPS (TLR4) 0.1 ug/mL,1.08
same,NF-kB SEAP reporter activity,[2]; [6],1.05
same,NF-kB SEAP reporter activity,[2]; [7],1.02
same,NF-kB SEAP reporter activity,[2]; [8],1.16
CNC(=NC#N)NCCSCc1nc[nH]c1C,NF-kB SEAP reporter activity,[1]; [4],0.92
same,NF-kB SEAP reporter activity,[1]; [5],0.882
CCC(Nc1ncnc2[nH]cnc12)c1oc2ccccc2c(=O)c1-c1cccc(F)c1 (centres undefined),NF-kB SEAP reporter activity,[1]; [4],0.582
same,NF-kB SEAP reporter activity,[1]; [5],0.924
CCC(Nc1ncnc2[nH]cnc12)c1oc2ccccc2c(=O)c1-c1cccc(F)c1 (centres undefined) (library stock concentration (final ~1000-fold dilution): 10 mM),NF-kB SEAP reporter activity,[2]; agonist: LPS (TLR4) 0.1 ug/mL,0.907
same,NF-kB SEAP reporter activity,[2]; [6],0.718
same,NF-kB SEAP reporter activity,[2]; [7],0.443
same,NF-kB SEAP reporter activity,[2]; [8],0.61
O=C(O)c1ccc(/C=C2/SC(=S)N(Cc3cccc(C(F)(F)F)c3)C2=O)cc1,NF-kB SEAP reporter activity,[1]; [4],0.954
same,NF-kB SEAP reporter activity,[1]; [5],0.727
O=C(O)c1ccc(/C=C2/SC(=S)N(Cc3cccc(C(F)(F)F)c3)C2=O)cc1 (library stock concentration (final ~1000-fold dilution): 10 mM),NF-kB SEAP reporter activity,[2]; agonist: LPS (TLR4) 0.1 ug/mL,0.619
same,NF-kB SEAP reporter activity,[2]; [6],0.737
same,NF-kB SEAP reporter activity,[2]; [7],0.832
same,NF-kB SEAP reporter activity,[2]; [8],0.5
CCN(CC)CCNc1ccc(C)c2sc3ccccc3c(=O)c12,NF-kB SEAP reporter activity,[1]; [10],2.42
same,NF-kB SEAP reporter activity,[1]; [9],2.02
CCN(CC)CCNc1ccc(C)c2sc3ccccc3c(=O)c12 (library stock concentration (final ~1000-fold dilution): 10 mM),NF-kB SEAP reporter activity,[3]; agonist: LPS (TLR4) 0.1 ug/mL,1.08
same,NF-kB SEAP reporter activity,[3]; [6],0.163
same,NF-kB SEAP reporter activity,[3]; [7],0.65
same,NF-kB SEAP reporter activity,[3]; [8],0.742
Cc1cc(Nc2cc(N3CCN(C)CC3)nc(/C=C/c3ccccc3)n2)n[nH]1.O=C(O)C(O)C(O)C(=O)O,NF-kB SEAP reporter activity,[1]; [4],0.89
same,NF-kB SEAP reporter activity,[1]; [5],0.85
Cc1cc(Nc2cc(N3CCN(C)CC3)nc(/C=C/c3ccccc3)n2)n[nH]1.O=C(O)C(O)C(O)C(=O)O (library stock concentration (final ~1000-fold dilution): 10 mM),NF-kB SEAP reporter activity,[2]; agonist: LPS (TLR4) 0.1 ug/mL,0.407
same,NF-kB SEAP reporter activity,[2]; [6],0.191
same,NF-kB SEAP reporter activity,[2]; [7],0.297
same,NF-kB SEAP reporter activity,[2]; [8],0.279
Cc1cc(C)c(CNC(=O)c2cc(-c3ccc(CN4CCOCC4)cc3)cc3c2cnn3C2CCCC2)c(=O)[nH]1,NF-kB SEAP reporter activity,"[1]; library stock concentration (final ~1000-fold dilution): 2 mM, cytotoxicity flag (confluency mask): not cytotoxic, agonist: Imiquimod (TLR7) […]",0.445
same,NF-kB SEAP reporter activity,"[1]; library stock concentration (final ~1000-fold dilution): 2 mM, cytotoxicity flag (confluency mask): not cytotoxic, agonist: MPLA (TLR4) […]",0.798
Cc1cc(C)c(CNC(=O)c2cc(-c3ccc(CN4CCOCC4)cc3)cc3c2cnn3C2CCCC2)c(=O)[nH]1 (library stock concentration (final ~1000-fold dilution): 2 mM),NF-kB SEAP reporter activity,[2]; agonist: LPS (TLR4) 0.1 ug/mL,1.37
same,NF-kB SEAP reporter activity,[2]; [6],0.508
same,NF-kB SEAP reporter activity,[2]; [7],0.738
same,NF-kB SEAP reporter activity,[2]; [8],0.498
COc1ccc(Oc2cc(NCCC(F)(F)F)c3ncc(-c4ccc(C(=O)NC5CC5)c(C)c4)n3n2)c(F)c1F,NF-kB SEAP reporter activity,[1]; [4],1.19
same,NF-kB SEAP reporter activity,[1]; [5],1.32
COc1ccc(Oc2cc(NCCC(F)(F)F)c3ncc(-c4ccc(C(=O)NC5CC5)c(C)c4)n3n2)c(F)c1F (library stock concentration (final ~1000-fold dilution): 10 mM),NF-kB SEAP reporter activity,[2]; agonist: LPS (TLR4) 0.1 ug/mL,2.44
same,NF-kB SEAP reporter activity,[2]; [6],1.78
same,NF-kB SEAP reporter activity,[2]; [7],0.636
same,NF-kB SEAP reporter activity,[2]; [8],0.913
C[C@H]1[C@@H](O)O[C@@H]2OC3(C)CC[C@H]4[C@H](C)CC[C@@H]1[C@@]24OO3 (library stock concentration (final ~1000-fold dilution): 10 mM),NF-kB SEAP reporter activity,[2]; agonist: LPS (TLR4) 0.1 ug/mL,3.41
CC(C)c1cc2c(cc1S(=O)(=O)O)[C@@]1(C)CCC[C@@](C)(C(=O)O)[C@@H]1CC2,NF-kB SEAP reporter activity,[1]; [4],0.747
same,NF-kB SEAP reporter activity,[1]; [5],1.02
CC(C)c1cc2c(cc1S(=O)(=O)O)[C@@]1(C)CCC[C@@](C)(C(=O)O)[C@@H]1CC2 (library stock concentration (final ~1000-fold dilution): 10 mM),NF-kB SEAP reporter activity,[2]; agonist: LPS (TLR4) 0.1 ug/mL,1.11
same,NF-kB SEAP reporter activity,[2]; [6],1.11
same,NF-kB SEAP reporter activity,[2]; [7],1.2
same,NF-kB SEAP reporter activity,[2]; [8],1.04
Cc1ccccc1C(=O)Nc1ccc(C(=O)N2CCCC(O)c3cc(Cl)ccc32)c(C)c1 (centres undefined),NF-kB SEAP reporter activity,[1]; [4],1.23
same,NF-kB SEAP reporter activity,[1]; [5],0.983
Cc1ccccc1C(=O)Nc1ccc(C(=O)N2CCCC(O)c3cc(Cl)ccc32)c(C)c1 (centres undefined) (library stock concentration (final ~1000-fold dilution): 10 mM),NF-kB SEAP reporter activity,[2]; agonist: LPS (TLR4) 0.1 ug/mL,1.05
same,NF-kB SEAP reporter activity,[2]; [6],0.949
same,NF-kB SEAP reporter activity,[2]; [7],0.953
same,NF-kB SEAP reporter activity,[2]; [8],0.792
NC(=O)c1ccc(-c2nc(-c3ccc4c(c3)OCCO4)c(-c3ccccn3)[nH]2)cc1 (library stock concentration (final ~1000-fold dilution): 10 mM),NF-kB SEAP reporter activity,[2]; agonist: LPS (TLR4) 0.1 ug/mL,1.81
same,NF-kB SEAP reporter activity,[2]; [6],1.29
same,NF-kB SEAP reporter activity,[2]; [7],1.25
same,NF-kB SEAP reporter activity,[2]; [8],0.913
NC(=O)c1ccc(-c2nc(-c3ccc4c(c3)OCCO4)c(-c3ccccn3)[nH]2)cc1,NF-kB SEAP reporter activity,[1]; [4],0.743
same,NF-kB SEAP reporter activity,[1]; [5],1.45
CCC1=CC2CN(C1)Cc1c([nH]c3ccccc13)C(C(=O)OC)(c1cc3c(cc1OC)N(C)C1C(O)(C(=O)OC)C(OC(C)=O)C4(CC)C=CCN5CCC31C54)C2 (centres undefined),NF-kB SEAP reporter activity,[1]; [10],2.47
same,NF-kB SEAP reporter activity,[1]; [9],2.6
CCC1=CC2CN(C1)Cc1c([nH]c3ccccc13)C(C(=O)OC)(c1cc3c(cc1OC)N(C)C1C(O)(C(=O)OC)C(OC(C)=O)C4(CC)C=CCN5CCC31C54)C2 (centres undefined) (library stock concentration (final ~1000-fold dilution): 10 mM),NF-kB SEAP reporter activity,[3]; agonist: LPS (TLR4) 0.1 ug/mL,5.34
same,NF-kB SEAP reporter activity,[3]; [6],0.35
same,NF-kB SEAP reporter activity,[3]; [7],1.78
same,NF-kB SEAP reporter activity,[3]; [8],1.95
